This is one part of the list. Repeats are few or missing, and single values can be far off.

Holding throughout (assay): cell count relative to DMSO control; melanoma cells; higher = more viable cells
Holding throughout (settings): library dose: low library concentration; 72 h

In experiment [1] the test system is WM115.
The subject of experiment [2] is WM1716.
The test system of experiment [3] is WM1745.
The test system of experiment [4] is WM3526.
Experiment [5] deals with WM3619.
The test system of experiment [6] is WM451Lu.
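Note: cell number obtained by counting DAPI-stained nuclei in high-throughput microscope images with image analysis software, screen run in 1,536-well plates.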

`CN(c1ncccc1CNc1nc(Nc2ccc3c(c2)CC(=O)N3)ncc1C(F)(F)F)S(C)(=O)=O` + CCN(CC)CCCCNc1ncc2cc(-c3cc(OC)cc(OC)c3)c(NC(=O)NC(C)(C)C)nc2n1 [PD173074] (first compound 0.08 µM, partner dose 0.1 µM): the cell count stood at 82.4% in experiment [1]; 96% in experiment [2]; 70.8% in experiment [3]; 95.8% in experiment [4]; 134% in experiment [5]; 81.5% in experiment [6].
For `CCCS(=O)(=O)Nc1ccc(F)c(C(=O)c2c[nH]c3ncc(Cl)cc23)c1F` + O=C1NC(=O)/C(=C/c2ccc(-c3ccc(F)cc3O)o2)S1 [AS252424] (first compound 0.08 µM, partner dose 1 µM), the cell count in experiment [1] came to 102%; in experiment [2], 116%; in experiment [3], 82.7%; in experiment [4], 70.3%; in experiment [5], 74.4%; in experiment [6], 106%.
Consider `C=C(c1ccc(C(=O)O)cc1)c1cc2c(cc1C)C(C)(C)CCC2(C)C` [Bexarotene] + O=C(CCCCCCC(=O)Nc1ccccc1)NO [vorinostat] (first compound 2 µM, partner dose 0.08 µM), for which the cell count in experiment [1] was determined as 88.7%; in experiment [2] it was 83.4%; in experiment [3], 104%; in experiment [4], 83.9%; in experiment [5] it was 90.7%; in experiment [6], 96.6%.
As to `CCCS(=O)(=O)Nc1ccc(F)c(C(=O)c2c[nH]c3ncc(Cl)cc23)c1F` + Nc1cccc2c1CN(C1CCC(=O)NC1=O)C2=O [lenalidomide] (first compound 0.08 µM, partner dose 1 µM), the cell count in experiment [1] turned out to be 112%; in experiment [2], 127%; in experiment [3], 119%; in experiment [4], 81.8%; in experiment [5], 94.2%; in experiment [6], 117%.
`CS(=O)(=O)c1ccc(C(=O)Nc2ccc(Cl)c(-c3ccccn3)c2)c(Cl)c1` [vismodegib] + CCCCCCCCCCCC1=C(O)C(=O)C=C(O)C1=O [Embelin] (first compound 1 µM, partner dose 1.2 µM): the cell count in experiment [1] is 87.3%; in experiment [2] it was 103%; in experiment [3], 112%; in experiment [4], 104%; in experiment [5], 104%; in experiment [6], 93.5%.
With `C=C(c1ccc(C(=O)O)cc1)c1cc2c(cc1C)C(C)(C)CCC2(C)C` [Bexarotene] + COC(=O)c1sccc1S(=O)(=O)Nc1ccc(Nc2ccccc2)cc1OC [GSK0660] (first compound 2 µM, partner dose 1 µM), the cell count was 92.3% in experiment [1]; 94.5% in experiment [2]; 89.9% in experiment [3]; 90.5% in experiment [4]; 94.6% in experiment [5]; 83.9% in experiment [6].
In the case of `CCCS(=O)(=O)Nc1ccc(F)c(C(=O)c2c[nH]c3ncc(Cl)cc23)c1F` + O=C(O)C(=O)Nc1sc2c(c1C(=O)O)CCNC2 [TCS401] (first compound 0.08 µM, partner dose 1.66667 µM), the cell count worked out at 106% in experiment [1]; 101% in experiment [2]; 84.6% in experiment [3]; 71.7% in experiment [4]; 103% in experiment [5]; 68.2% in experiment [6].
On to `CS(=O)(=O)c1ccc(C(=O)Nc2ccc(Cl)c(-c3ccccn3)c2)c(Cl)c1` [vismodegib] + COc1ccc(COc2ccc(Cc3cnc(N)nc3N)cc2OC)cc1 [GW2580] (first compound 1 µM, partner dose 1 µM), for which the cell count in experiment [1] came out at 106%; in experiment [2] it was 118%; in experiment [3] it was 91.9%; in experiment [4], 97.9%; in experiment [5], 132%; in experiment [6], 95%.
Turning to `C=C(c1ccc(C(=O)O)cc1)c1cc2c(cc1C)C(C)(C)CCC2(C)C` [Bexarotene] + COc1cc(N2CCC(N3CCN(C)CC3)CC2)ccc1Nc1ncc(Cl)c(Nc2ccccc2S(=O)(=O)C(C)C)n1 [NVP-TAE684] (first compound 2 µM, partner dose 0.08 µM), the cell count in experiment [1] is 95.6%; in experiment [2], 100%; in experiment [3], 101%; in experiment [4], 84.5%; in experiment [5], 77.7%; in experiment [6], 93.8%.
As for `CN(c1ncccc1CNc1nc(Nc2ccc3c(c2)CC(=O)N3)ncc1C(F)(F)F)S(C)(=O)=O` + CN1CCN(c2ccc3nc(-c4c(N)c5c(F)cccc5[nH]c4=O)[nH]c3c2)CC1 [Dovitinib] (first compound 0.08 µM, partner dose 0.1 µM), the cell count in experiment [1] worked out at 87.8%; in experiment [2], 82.3%; in experiment [3], 80.4%; in experiment [4], 108%; in experiment [5], 112%; in experiment [6], 78.9%.
Turning to `CN(c1ncccc1CNc1nc(Nc2ccc3c(c2)CC(=O)N3)ncc1C(F)(F)F)S(C)(=O)=O` + COc1ccc(COc2ccc(Cc3cnc(N)nc3N)cc2OC)cc1 [GW2580] (first compound 0.08 µM, partner dose 1 µM), the cell count in experiment [1] turned out to be 80.4%; in experiment [2], 85.1%; in experiment [3] it was 87.3%; in experiment [4], 102%; in experiment [5], 81.8%; in experiment [6], 79.1%.
For the compound `C=C(c1ccc(C(=O)O)cc1)c1cc2c(cc1C)C(C)(C)CCC2(C)C` [Bexarotene] + CN(C)S(=O)(=O)c1ccc2c(c1)/C(=C/c1cc3c([nH]1)CCCC3)C(=O)N2 [SU6656] (first compound 2 µM, partner dose 0.4 µM), the cell count in experiment [1] was 85.5%; in experiment [2] it was 92.4%; in experiment [3], 101%; in experiment [4] it was 108%; in experiment [5] it was 96.5%; in experiment [6], 74.9%.
For the compound `NC1(c2ccc(-c3nc4ccn5c(=O)[nH]nc5c4cc3-c3ccccc3)cc2)CCC1` + O=c1cc(-c2cccc3c2Sc2ccccc2S3)oc(N2CCOCC2)c1 [KU55933] (first compound 0.4 µM, partner dose 1 µM), the cell count in experiment [1] is 76.4%; in experiment [2] it was 95.2%; in experiment [3], 91.1%; in experiment [4], 65.6%; in experiment [5], 131%; in experiment [6], 103%.
For the compound `NC1(c2ccc(-c3nc4ccn5c(=O)[nH]nc5c4cc3-c3ccccc3)cc2)CCC1` + O=C(O)[C@@H]1[O][Sb](=[O])([O][Sb]2(=[O])[O][C@H]([C@H](O)CO)[C@H](O)[C@H](C(=O)O)[O]2)[O][C@H]([C@H](O)CO)[C@@H]1O [stibogluconate] (first compound 0.4 µM, partner dose 2 µM), the cell count was found to be 82.6% in experiment [1]; 105% in experiment [2]; 88.4% in experiment [3]; 80.6% in experiment [4]; 90.1% in experiment [5]; 89.2% in experiment [6].
Consider `CS(=O)(=O)c1ccc(C(=O)Nc2ccc(Cl)c(-c3ccccn3)c2)c(Cl)c1` [vismodegib] + CC(C)C[C@H](NC(=O)[C@H](Cc1ccccc1)NC(=O)c1cnccn1)B(O)O [Bortezomib] (first compound 1 µM, partner dose 0.001 µM), for which the cell count in experiment [1] came out at 97.8%; in experiment [2], 78%; in experiment [3], 87.6%; in experiment [4] it was 80.4%; in experiment [5], 74.4%; in experiment [6], 101%.
Turning to `NC1(c2ccc(-c3nc4ccn5c(=O)[nH]nc5c4cc3-c3ccccc3)cc2)CCC1` + COc1cc(N2CCC(N3CCN(C)CC3)CC2)ccc1Nc1ncc(Cl)c(Nc2ccccc2S(=O)(=O)C(C)C)n1 [NVP-TAE684] (first compound 0.4 µM, partner dose 0.08 µM), the cell count was 92.4% in experiment [1]; 102% in experiment [2]; 96.3% in experiment [3]; 76.1% in experiment [4]; 107% in experiment [5]; 97.2% in experiment [6].
On to `C=C(c1ccc(C(=O)O)cc1)c1cc2c(cc1C)C(C)(C)CCC2(C)C` [Bexarotene] + Nc1ccn([C@@H]2O[C@H](CO)[C@@H](O)C2(F)F)c(=O)n1 [gemcitabine] (first compound 2 µM, partner dose 0.0004 µM), for which the cell count was 92% in experiment [1]; 83% in experiment [2]; 82.8% in experiment [3]; 85.6% in experiment [4]; 86.6% in experiment [5]; 63.8% in experiment [6].
As for `C=C(c1ccc(C(=O)O)cc1)c1cc2c(cc1C)C(C)(C)CCC2(C)C` [Bexarotene] + Cn1cncc1[C@@](N)(c1ccc(Cl)cc1)c1ccc2c(c1)c(-c1cccc(Cl)c1)cc(=O)n2C [tipifarnib] (first compound 2 µM, partner dose 0.01 µM), the cell count in experiment [1] was determined as 102%; in experiment [2], 84.3%; in experiment [3], 98.2%; in experiment [4], 84%; in experiment [5], 72.1%; in experiment [6], 81.7%.
As for `CN(c1ncccc1CNc1nc(Nc2ccc3c(c2)CC(=O)N3)ncc1C(F)(F)F)S(C)(=O)=O` + Nc1ccn([C@@H]2O[C@H](CO)[C@@H](O)C2(F)F)c(=O)n1 [gemcitabine] (first compound 0.08 µM, partner dose 0.0004 µM), the cell count amounted to 77.1% in experiment [1]; 76.5% in experiment [2]; 69.1% in experiment [3]; 78.2% in experiment [4]; 98.8% in experiment [5]; 73.1% in experiment [6].
For `CCCS(=O)(=O)Nc1ccc(F)c(C(=O)c2c[nH]c3ncc(Cl)cc23)c1F` + COc1cc2ncnc(Nc3ccc(Oc4ccccc4)cc3)c2cc1OC [SrcI1] (first compound 0.08 µM, partner dose 2 µM), the cell count came to 96.4% in experiment [1]; 115% in experiment [2]; 82% in experiment [3]; 63.3% in experiment [4]; 97.1% in experiment [5]; 111% in experiment [6].
On to `CN(c1ncccc1CNc1nc(Nc2ccc3c(c2)CC(=O)N3)ncc1C(F)(F)F)S(C)(=O)=O` + NC(=O)Nc1cc(-c2cccc(F)c2)sc1C(=O)N[C@H]1CCCNC1 [AZD7762] (first compound 0.08 µM, partner dose 0.02 µM), for which the cell count turned out to be 77.9% in experiment [1]; 81.1% in experiment [2]; 84.9% in experiment [3]; 106% in experiment [4]; 65.4% in experiment [5]; 71.2% in experiment [6].
Turning to `NC1(c2ccc(-c3nc4ccn5c(=O)[nH]nc5c4cc3-c3ccccc3)cc2)CCC1` + C[C@]1(c2nc3c(C(N)=O)cccc3[nH]2)CCCN1 [Veliparib] (first compound 0.4 µM, partner dose 1.4 µM), the cell count in experiment [1] came to 69%; in experiment [2] it was 89%; in experiment [3], 89.3%; in experiment [4], 73.1%; in experiment [5] it was 89%; in experiment [6] it was 98.7%.
With `C=C(c1ccc(C(=O)O)cc1)c1cc2c(cc1C)C(C)(C)CCC2(C)C` [Bexarotene] + CC1(C)NC(=O)N(c2ccc([N+](=O)[O-])c(C(F)(F)F)c2)C1=O [nilutamide] (first compound 2 µM, partner dose 1 µM), the cell count came out at 91.8% in experiment [1]; 85.4% in experiment [2]; 94.4% in experiment [3]; 89.9% in experiment [4]; 96.8% in experiment [5]; 88.5% in experiment [6].
In the case of `CN(c1ncccc1CNc1nc(Nc2ccc3c(c2)CC(=O)N3)ncc1C(F)(F)F)S(C)(=O)=O` + Cn1c(=O)n(-c2ccc(C(C)(C)C#N)cc2)c2c3cc(-c4cnc5ccccc5c4)ccc3ncc21 [NVP-BEZ235] (first compound 0.08 µM, partner dose 0.004 µM), the cell count in experiment [1] was 76.5%; in experiment [2] it was 98.1%; in experiment [3], 84.1%; in experiment [4], 95.1%; in experiment [5], 88.4%; in experiment [6], 65.9%.
`C=C(c1ccc(C(=O)O)cc1)c1cc2c(cc1C)C(C)(C)CCC2(C)C` [Bexarotene] + O=c1cc(-c2cccc3c2Sc2ccccc2S3)oc(N2CCOCC2)c1 [KU55933] (first compound 2 µM, partner dose 1 µM): the cell count stood at 91.3% in experiment [1]; 106% in experiment [2]; 102% in experiment [3]; 92.8% in experiment [4]; 104% in experiment [5]; 105% in experiment [6].

The values are drawn from the supplement of paper PMC4604168 (melanoma cell lines).
